Screen size: about 45,000 compounds; about 65 (0.1%) were called active. Calls come from the whole dose curve; as a rule, active = well fitted activation curve with a large enough effect; inconclusive = small, poorly fitted or top-dose-only effect; inactive = no such curve, though single readings can be large or run the other way. Some of the results follow.

In this assay the target is Galactocerebrosidase (Homo sapiens) (UniProt P54803). Briefly: A Novel Cell-Based Assay to Identify Small Molecules for B -Galactocerebrosidase. Note: 0% is about no effect; nearly all actives have a fitted effect of over 65% in size. To be noted: 145M-Twi-hGALC-G270D cells (Twitcher mouse brain line with human GALC G270D), HMU-beta-Gal fluorescence, 48 h; series mostly up to 57.5 µM; activation: at the top concentration. The essentials: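 Mutant human GALC (G270D), stably expressed in a Twitcher mouse brain cell line lacking endogenous GALC, is measured in live-treated cells via 6-hexadecanoylamino-4-methylumbelliferyl-β-galactoside hydrolysis (0.1 mM final, pH 5.2) with fluorescent detection.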
UniProt P54803, sequence (P54803 whole entry, looked up): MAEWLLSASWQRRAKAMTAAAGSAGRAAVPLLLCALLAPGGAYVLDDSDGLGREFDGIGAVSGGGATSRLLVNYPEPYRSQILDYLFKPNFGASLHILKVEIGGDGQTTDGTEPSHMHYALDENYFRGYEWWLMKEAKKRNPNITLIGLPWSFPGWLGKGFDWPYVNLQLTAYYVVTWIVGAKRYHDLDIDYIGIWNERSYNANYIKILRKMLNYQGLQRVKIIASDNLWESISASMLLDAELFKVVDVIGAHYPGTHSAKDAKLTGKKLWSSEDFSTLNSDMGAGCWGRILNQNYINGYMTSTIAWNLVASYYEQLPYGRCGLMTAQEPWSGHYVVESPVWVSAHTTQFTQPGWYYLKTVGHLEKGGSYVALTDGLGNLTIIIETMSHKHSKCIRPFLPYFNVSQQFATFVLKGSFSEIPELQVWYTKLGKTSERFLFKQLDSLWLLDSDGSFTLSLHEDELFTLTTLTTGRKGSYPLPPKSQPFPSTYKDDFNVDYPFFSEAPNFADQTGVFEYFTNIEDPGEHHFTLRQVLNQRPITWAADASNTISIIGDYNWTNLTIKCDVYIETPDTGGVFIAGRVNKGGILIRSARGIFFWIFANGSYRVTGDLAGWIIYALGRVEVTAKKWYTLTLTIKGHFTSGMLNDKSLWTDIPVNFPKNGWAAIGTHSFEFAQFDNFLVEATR
Take `COc1ccccc1N1CCN(c2ncnc3onc(-c4ccc(F)cc4)c23)CC1`: the “activation” value was inactive: -22.3%.
For `Cc1ccc(NC(=O)C2CCN(S(=O)(=O)c3ccc4[nH]c5c(c4c3)CCCCC5)CC2)cc1`, the “activation” value is inactive: -18.8%.
Next, `COC(=O)c1c(NC(=O)CCCOc2ccc(C(C)(C)C)cc2)sc2c1C(C(=O)OC)CC2` (stereo not given): inactive: -12.3%; `CCc1ccc(CNC(=O)C(C)n2ccc3cc(S(=O)(=O)N4CCCCCC4)ccc32)cc1` (stereo not given): inactive: -14.1%.
For `COc1ccc(N2CCN(C(=O)CCn3c(=O)[nH]c4cc(OC)c(OC)cc4c3=O)CC2)cc1`, the “activation” value was inactive: -17.5%.
Turning to `Cc1ccc(C)c(NC(=O)C2CCCN(c3nc4ccccc4s3)C2)c1` (stereo not given), the “activation” value is inactive: -11.9%.
Next, `CC1CN(C(=O)N2CCC(C(=O)NCc3cccs3)CC2)c2cc(Cl)ccc2O1` (stereo not given): inactive: -6.25%; `CCOC(=O)CSC1=Nc2ccccc2C2=NC(CCC(=O)NCc3ccc(F)cc3)C(=O)N12` (stereo not given): inactive: -13.3%.
Next, `O=C(NCc1cccc(F)c1)C1CCCN(C(=O)N2CCOc3ccccc32)C1` (stereo not given): inactive: -14%.
Next, `Clc1cccc(CSc2ccc(-c3cccs3)nn2)c1`: inactive: 2.19%; `COC(=O)CN1C(C(=O)c2ccccc2)=C(OC(=O)c2ccc(C)cc2)c2ccccc2S1(=O)=O`: inactive: -3.44%.
On to `O=C(c1cccn1-c1nnc(N2CCCCC2)s1)N1CCN(c2ccccc2)CC1`, for which the “activation” value was inactive: -13.1%.
In the case of `CC(C)C[C@H](NC(=O)[C@H](Cc1ccccc1)NC(=O)c1cnccn1)B(O)O` it was inactive: -13.6%.
Next, `CCOC(=O)c1c(C)oc2nc(C)nc(N3CCN(c4ccc(OC)cc4)CC3)c12`: inactive: -16.4%.
Next, `CCNC(=O)C1CCN(Cc2cc3ccccc3n2Cc2ccc(C)cc2)CC1`: inactive: -13.8%; `COc1ccccc1Cn1c(SCC(=O)C(C)(C)C)nc2ccccc2c1=O`: inactive: -7.96%.
As to `CCOc1ccccc1CNC(=O)CCCN1C(=O)c2cccnc2Oc2ccc(Cl)cc21`, the “activation” value is inactive: 1.31%.
As to `CCOC(=O)C1CCN(C(=O)Cn2ncc3c4ccccc4n(C)c3c2=O)CC1`, the “activation” value is inactive: -11.6%.
In the case of `COc1ccc(CNC(=O)CCCN2C(=O)c3cccnc3Oc3ccc(Cl)cc32)cc1`, the “activation” value was inactive: -14.4%.
With `Cc1oc(-c2cccc(Cl)c2)nc1CSCC(=O)NCc1ccccc1Cl`, the “activation” value was inactive: -17.7%.
As to `CCn1c(=O)c2sccc2n2c(CCC(=O)NCc3ccc(Cl)cc3)nnc12`, the “activation” value is inactive: -7.77%.
Regarding `CCS(=O)(=O)c1ccccc1C(=O)N1CCN(c2nc3ccccc3s2)CC1`, the “activation” value was inactive: -19%.
As for `N#Cc1ccc(CSc2nnc(-c3ccc(Br)cc3)o2)cc1`, the “activation” value was inactive: -16.5%.
With `COCCNC(=O)c1ccc(-c2nc(CN3CCc4ccccc43)c(C)o2)cc1`, the “activation” value was inactive: -9.25%.
Turning to `CCOC(=O)c1ccc(NC(=O)CN2CCCCC2)cc1`, the “activation” value was inactive: -8.12%.
In the case of `Cc1ccc(OCC(=O)Nc2sc3c(c2C(N)=O)CCCC3)c(C(C)(C)C)c1`, the “activation” value is inactive: 0.69%.
In the case of `CC(C)OCCCNC(=O)CN1C(=O)COc2ccc(S(=O)(=O)N3CCOCC3)cc21` it was inactive: 6.85%; in that of `COc1ccccc1NC(=O)c1ncoc1-c1ccco1`, inactive: -9.68%.
Next, `Cc1csc2nc(COC(=O)c3ccc(NC(=O)C(C)C)cc3)cc(=O)n12`: inactive: -22.3%; `CCCCNC(=O)Cn1cnc2sc(C)c(S(=O)(=O)N3CCN(c4ccccc4OC)CC3)c2c1=O`: inactive: -23.1%.
On to `Cc1cccc(NC(=O)c2cc3c(=O)n4ccccc4nc3n2C)c1C`, for which the “activation” value is inactive: -7.38%.
Consider `Cc1ccc(-n2c(SCC(=O)Nc3ccc4c(c3)OCCO4)nc3c([nH]c4ccccc43)c2=O)cc1`, for which the “activation” value is inactive: -28.7%.
Consider `Cc1cccc(NS(=O)(=O)c2nnc(NC(=O)c3cccc(C)c3)s2)c1`, for which the “activation” value was inactive: -20.8%.
In the case of `COC(=O)c1ccccc1NC(=O)CSc1nc2nc(C)cc(C)n2n1` it was inactive: -0.292%; in that of `Cc1ccc(C(=O)Nc2ccc(Br)cc2)cc1S(=O)(=O)NCc1ccccc1`, inactive: 1.89%; in that of `CCOc1ccccc1C(=O)N(Cc1ccco1)Cc1ccccc1F`, inactive: -11.7%.
In the case of `CCOc1ccc2nc(NC(=O)c3ccccc3)sc2c1` it was inactive: -14%; in that of `O=C(Cn1ncc2c3ccccc3n(Cc3ccccc3F)c2c1=O)NCCCc1ccccc1`, inactive: -8.97%; in that of `CCOc1ccc(NC(=O)C(=O)NCCc2ccccc2)cc1`, inactive: -13.9%.
Consider `CCc1ccc(S(=O)(=O)Nc2cc3c(cc2N2CCOCC2)n(C)c(=O)c(=O)n3C)cc1`, for which the “activation” value is inactive: 13.2%.
Next, `COc1ccc(-c2nc3ccccc3s2)cc1NC(=O)COc1cccc(C)c1`: inactive: -18.1%; `O=c1c(N2CCCCC2)csc2ccc(F)cc12`: inactive: -13.7%; `CCc1nc2ccc(C(=O)NCc3cccc(Br)c3)cc2nc1CC`: inactive: -17.5%.
Turning to `O=C(c1cnc(N2CCCCC2)c2ccccc12)N1CCN(c2cccc(Cl)c2)CC1`, the “activation” value was inactive: 5.19%.
Turning to `COCCCNC(=O)c1nn(-c2ccc(C)cc2)c(=O)n(C)c1=O`, the “activation” value is inactive: -16.1%.
In the case of `Cc1cc(C)cc(NC(=O)CCCn2c(=O)c3cccn3c3ccccc32)c1` it was inactive: -10.3%; in that of `O=C(Cn1c(=O)n(CCCS(=O)(=O)C2CCCCC2)c(=O)c2ccccc21)Nc1ccc(F)c(Cl)c1`, inactive: -12.4%; in that of `COc1ccc(C)cc1NC(=O)N1CCN(c2nnc(C)c3c(C)n(-c4ccccc4)nc23)CC1`, inactive: -10.2%.
With `Cc1ccc(CN2C(=O)c3ccccc3Sc3ccc(C(=O)NC4CCCC4)cc32)cc1`, the “activation” value was inactive: -10.7%.
Take `O=C(Cn1c(SCc2ccccc2F)nc2cccnc21)Nc1ccc(F)c(Cl)c1`: the “activation” value is inactive: -5.95%.
With `CCNC(=O)c1c2c(nc3ccccc13)C(=O)N(C1CCCCC1)C2`, the “activation” value was inactive: -16.4%.
`COc1ccc(Cl)cc1C1CC(=O)Nc2cc3c(cc21)OCCO3` (stereo not given): the “activation” value is inactive: -25.7%.
For the compound `CCCCNc1sc(S(=O)(=O)CCC)nc1S(=O)(=O)c1ccc(C)cc1`, the “activation” value is inactive: -12.3%.
In the case of `CCOc1ccccc1NC(=O)CCc1c(C)nc2c3cccnc3nn2c1C` it was inactive: -18.2%; in that of `CCc1cccc(NC(=O)Cn2ncc3c([nH]c4ccc(C)cc43)c2=O)c1`, inactive: -9.71%.
As for `O=C(Nc1ccc(F)cc1)Nc1ccc2snnc2c1`, the “activation” value was inactive: -24.9%.
With `CCc1cccc(NC(=O)CN(c2ccc(C)cc2)S(=O)(=O)c2cccs2)c1`, the “activation” value is inactive: -11.2%.
Regarding `O=C(NC1CC(=O)N(c2ccccc2)C1)c1ccco1` (stereo not given), the “activation” value is inactive: -16.5%.
In the case of `Cc1ccc(C(=O)N2CCc3cc(CNC(=O)CCc4ccccc4)ccc32)cc1`, the “activation” value was inactive: -22.4%.
In the case of `COc1cccc(C(=O)NCCc2csc(-c3cccc(F)c3)n2)c1OC` it was inactive: -11.1%.
Regarding `CC(CNC(=O)C1CCN(S(=O)(=O)c2ccc3c(ccn3C)c2)CC1)c1ccccc1` (stereo not given), the “activation” value was inactive: -2.7%.
As to `CC(C)OC(=O)c1c(NC(=O)COc2cccc(Br)c2)sc2c1CCCC2`, the “activation” value was inactive: -15.9%.
For the compound `O=C(CSc1nc2c([nH]c3ccccc32)c(=O)n1-c1ccccc1)N1CCOCC1`, the “activation” value is inactive: -6.97%.
In the case of `COc1ccc(-c2onc(C)c2C)cc1S(=O)(=O)N1CCN(c2ccc(Cl)cc2)CC1` it was inactive: -8.84%; in that of `Nc1nonc1C(=O)NCCNCc1cccc(Cl)c1Cl`, inactive: -8.54%.
As for `COc1ccc(NC(=O)Cn2c(=O)n(Cc3ccccc3Cl)c(=O)c3cc(OC)c(OC)cc32)cc1OC`, the “activation” value was inactive: -3.81%.
With `CCCCN(CC)CCCNC(=O)C1CCCN(c2ncnc3c2nc2n3CCCCC2)C1` (stereo not given), the “activation” value was inactive: -20.3%.
Take `O=C1CC(c2cccc(O)c2)c2cc3c(cc2N1)OCO3` (stereo not given): the “activation” value was inactive: -13.8%.
For `CCCC(=O)c1cc(O)c(O)cc1O`, the “activation” value is inactive: -10% [at 114 µM].
Next, `CCN(CC)CCn1c(-c2ccccc2)csc1=Nc1ccccc1`: inactive: -15%; `Cc1ccc(-n2ncc3c(N(CC(C)C)CC(C)C)ncnc32)c(C)c1`: inactive: -13.9%; `CC(C)S(=O)(=O)c1oc(-c2cccs2)nc1S(=O)(=O)c1ccc(F)cc1`: inactive: -3.55%.
In the case of `Cc1ccc(NC(=O)c2c(C)oc3ccc(O)c(CN4CCCCCC4)c23)cc1` it was inactive: -14%; in that of `Cc1c(CC(=O)NCCc2ccccc2F)c(=O)oc2cc(O)c(Cl)cc12`, inactive: -19.3%.
In the case of `O=C(COc1ccccc1[N+](=O)[O-])N1CCC(c2nc3ccccc3o2)CC1` it was inactive: -13.2%; in that of `Cn1cc(-c2cc3n(n2)CCC(=O)N3CC(=O)NCc2ccc(Cl)cc2)c2ccccc21`, inactive: -20.5%; in that of `Cc1ccc(CCNC(=O)c2c(C)oc3nc(C)nc(N4CCOCC4)c23)cc1`, inactive: -7.62%.
Regarding `CCN(CCCNC(=O)c1cc(Nc2ccc(OC)cc2OC)nc2ccccc12)c1cccc(C)c1`, the “activation” value is inactive: -37.4%.
For `CCOCCCNC(=O)c1c(NC(=O)c2cc(=O)c3ccccc3o2)sc2c1CCC2`, the “activation” value was inactive: -14.1%.
In the case of `COc1ccccc1N1CCN(C(=O)Nc2cn(CC(C)C)c(=O)c3ccccc23)CC1` it was inactive: -24.1%; in that of `O=c1oc2c(CN3CCCC3)c(O)ccc2cc1-c1ccccc1`, inactive: -20.4%; in that of `CC(C)C(=O)Nc1cccc(C(=O)Nc2nnc(CC(C)(C)C)s2)c1`, inactive: -5.46%.
Next, `Cc1ccc(S(=O)(=O)C(CNC(=O)Cc2ccc(Cl)cc2)c2cccs2)cc1` (stereo not given): inactive: -7.98%.
Regarding `CCc1ccccc1NC(=O)c1cc2nc(-c3ccc(OC)c(OC)c3)cc(C(F)(F)F)n2n1`, the “activation” value was inactive: -12.5%.
Next, `Cc1cccc(Cn2c(=O)n(Cc3ccc4c(c3)OCO4)c(=O)c3oc4ccccc4c32)c1`: inactive: -29.4%.
Next, `CCOc1ccc(CNC(=O)c2ccc3c(c2)nnn3C2CCCC2)cc1`: inactive: -5.07%; `Cc1ccc2c(=O)cc(C(=O)Nc3c(C(=O)Nc4cccc(Cl)c4)oc4ccccc34)oc2c1`: inactive: -8.02%.
Next, `O=C(Nc1ccc(C(=O)OCc2cc(=O)n3c4c(sc3n2)CCCC4)cc1)c1ccc(Cl)cc1`: inactive: -7.47%; `CC(C)c1ccc(NC(=O)Nc2csc3c2CCCC3)cc1`: inactive: -38.2%; `COc1ccc(NC(=O)c2c(NCc3cccs3)sc3c2CCCC3)cc1`: inactive: -10%.
As to `CCCCN(C)CC(O)Cn1cc(/C=C/C(=O)c2ccc(C)cc2)c2ccccc21` (stereo not given), the “activation” value is inactive: -1.13%.
As to `COC(=O)c1ccc(NC(=O)Cn2c(=O)nc(-c3ccccc3)c3ccccc32)cc1`, the “activation” value was inactive: -7.73%.
Next, `CCOC(=O)c1ccc(NC(=O)Cn2ncc3c(C)n(Cc4ccccc4F)c(C)c3c2=O)cc1`: inactive: -6.89%.
Next, `COc1cc2ccccc2cc1C(=O)Nc1ccc2oc(-c3ccc(Cl)cc3)nc2c1`: inactive: -11.2%; `Cc1ccc(N2C(=O)CSC23C(=O)N(CC(=O)NC2CCCCC2)c2ccccc23)cc1C` (stereo not given): inactive: -16.9%; `Cn1cc(C(c2ccccc2)c2ccc(Cl)s2)c2ccccc21` (stereo not given): inactive: -11%.
For the compound `CCOc1cccc(NC(=O)C2CC(=O)N(C)C(=Nc3ccc(F)cc3)S2)c1` (stereo not given), the “activation” value is inactive: -14.7%.
Next, `CCOc1ccccc1NC(=O)CN1C(=O)COc2ccc(S(=O)(=O)N3CCCCC3)cc21`: inactive: -11.6%; `O=C(c1ccc(Br)s1)N(Cc1cccnc1)c1nc2ccc(F)cc2s1`: inactive: -14.9%.
Regarding `Cc1ccc2nc(COc3ccccc3NC(=O)COc3ccccc3Cl)cc(=O)n2c1`, the “activation” value was inactive: -0.648%.
